Experimental data published in PubChem BioAssay AID686979 (National Center for Advancing Translational Sciences (NCATS), 2013).
Hit rate of the full screen: of about 420,000 compounds, about 50,000 (12%) were called active. Inconclusive results, whose numbers are uncertain, are shown with a selection of clear calls. Calls follow the shape of the dose curve; as a rule, active = well fitted inhibition curve with a large enough effect; inconclusive = small, poorly fitted or top-dose-only effect; inactive = flat fitted curve, though single readings scatter. Potencies of inconclusive entries are left out as doubtful fits.

Test: qHTS for Inhibitors of human tyrosyl-DNA phosphodiesterase 1 (TDP1): qHTS in cells in presence of CPT; also: nearly all actives have a fitted effect of over 55% in size
Conditions: chicken DT40 Tdp1-/-;hTDP1 cells + 20 nM CPT, ATP luminescence, 48 h; series mostly up to 46.2 µM
How it was run: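 Chicken DT40 Tdp1-/- cells stably complemented with human TDP1 were seeded at 400 cells/well in medium containing 20 nM camptothecin, exposed to pin-transferred compounds, and grown at 37 °C for at least 48 hr. Viability was read as ATP luminescence.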
Potency is read from the fitted curve at half-maximal effect; tags tell the direction and shape of the fitted curve.

Row | Structure (SMILES) | Potency
1 | CN(C)Cc1ccccc1Sc1cccc2ccccc12 | inconclusive [inhibitor, partial curve]
2 | CCc1nc2c(OCc3ccc(Cl)cc3Cl)cccn2c1N(C)C(=O)C1CC1 | inconclusive [inhibitor, single point]
3 | CC1CCc2c(sc3nnn(Cc4ccccc4)c(=O)c23)C1 (configuration not stated) | inconclusive [inhibitor, partial curve]
4 | COc1ccc(C2=NOC(C(=O)NCc3cccnc3)C2)cc1OC (configuration not stated) | inconclusive [inhibitor, partial curve, poor fit]
5 | CCOc1ccccc1-c1nc(-c2cc3ccc(C)cc3[nH]c2=O)no1 | active: 25.9 µM
6 | CN(CCc1ccccc1)C(=O)c1cccc(NC(=O)Cc2cccc([N+](=O)[O-])c2)c1 | inconclusive [inhibitor, single point]
7 | Cc1ccc(NC(=O)c2ccccc2F)c(NC(=O)c2ccccc2F)c1 | inconclusive [inhibitor, single point]
8 | O=c1[nH][nH]c(C(F)(F)F)c1C=NCc1ccccc1Cl | inconclusive [inhibitor, single point]
9 | CC(C)C[C@H]1CN([C@@H](Cc2ccccc2)CN2CCC[C@@H]2CN2C(=O)C(=O)NC[C@@H]2Cc2ccc(O)cc2)C(=O)C(=O)N1CCc1ccccc1 | inconclusive [inhibitor, single point]
10 | CCCCN(CC)C(=O)c1cc2cc3ccc(Cl)cc3nc2o1 | inconclusive [inhibitor, single point]
11 | BrC(=C\c1ccccc1)/C=N/N1CCN(Cc2ccccc2)CC1 | active: 1.84 µM
12 | Cc1csc2nc(CCNS(=O)(=O)c3ccc4c(c3)OCCO4)cn12 | inactive
13 | COC(=O)c1ccccc1OCCCN(C)C | inactive
14 | CCc1ccc(NC(=O)[C@H](C)NC(=O)C2CCN(C(=O)[C@@H](NC(=O)OC(C)(C)C)C(C)C)CC2)cc1 | inactive
15 | CCOc1ccc(NC(=O)Cn2cc(C(=O)c3ccccc3)c(=O)c3cc(OC)ccc32)cc1 | inconclusive [inhibitor, single point]
16 | CC(C)(CN1CCN(Cc2ccccc2)CC1)NS(=O)(=O)c1ccccc1 | inconclusive [inhibitor, single point]
17 | Cc1cccc(-c2ccc3c(c2)C2CC3CCN2C)c1 (configuration not stated) | inconclusive [inhibitor, single point]
18 | CC1=C(C(=O)N2CCOCC2)CC(CC(=O)NCc2cccc3ccccc23)C(=O)N1Cc1ccccc1 (configuration not stated) | inconclusive [inhibitor, single point]
19 | COc1ccc(/C=C2/SC(=S)N(CCCC(=O)N3CCN(C)CC3)C2=O)cc1 | inconclusive [inhibitor, single point]
20 | CCn1cc(CN2CCC(n3nccc3NC(=O)C3CCCC3)CC2)c(C)n1 | inactive
21 | CCN(CC)CCC12CC(C)OC1=Nc1ccccc1NC2=O (configuration not stated) | inactive

Row | Structure (SMILES) | Potency
22 | O=C(/C=C/c1ccc(O)c([N+](=O)[O-])c1)c1ccc2ccccc2c1 | active: 18.4 µM
23 | O=C(Cc1ccc(F)cc1)NCCc1csc2nc(-c3ccc(Cl)cc3)nn12 | inconclusive [inhibitor, single point]
24 | CCOC(=O)c1ccc(NC(=O)c2cc3ccccc3o2)cc1 | inconclusive [inhibitor, single point]
25 | CCOC(=O)c1c(C)oc2cc(Sc3ccccc3)c(O)c(O)c12 | inconclusive [inhibitor, single point]
26 | COc1cccc(-c2cncnc2NCCN2CCOCC2)c1 | active: 0.82 µM
27 | CC(=O)NCCC(=O)N1CCc2c([nH]c3ccccc23)C1c1cccc(Cl)c1 (configuration not stated) | inconclusive [inhibitor, partial curve]
28 | COc1ccccc1-n1c(CNc2ccc(F)cc2)nnc1SCC(=O)Nc1cc(C)on1 | inactive
29 | Cc1[nH][nH]c(=O)c1C(c1ccc2c(c1)OCO2)c1c(C)[nH][nH]c1=O | inconclusive [inhibitor, single point]
30 | O=C(CSc1nnnn1-c1ccc(O)cc1)Nc1ccc(N2CCOCC2)c(Cl)c1 | inconclusive [inhibitor, single point]
31 | CCN1C(=O)c2ccccc2S(=O)c2ccc(C(=O)N3CCN(c4cccc(Cl)c4)CC3)cc21 (configuration not stated) | inconclusive [inhibitor, partial curve, poor fit]
32 | COc1c(OC(C)=O)ccc(/C=C/c2ccc3cccc(OCc4ccccc4)c3n2)c1[N+](=O)[O-] | active: 14.6 µM
33 | CS(=O)(=O)c1ccc2nc(NC(=O)c3ccc(N4C(=O)CCC4=O)cc3)sc2c1 | inconclusive [inhibitor, partial curve]
34 | CCOC(=O)c1[nH]c2ccccc2c1NC(=O)c1ccc(S(=O)(=O)N2CCCC2)cc1 | inconclusive [inhibitor, single point]
35 | CCN1C(=O)/C(=C2/C=Cc3ccccc3N2C)OC1=S | inactive
36 | O=C1CC(c2cccc(O)c2)Oc2ccccc21 (configuration not stated) | inconclusive [inhibitor, single point]
37 | CC(C)NC(=O)c1cc(C2CCCCN2C(=O)c2ccc(C#N)cc2)on1 (configuration not stated) | inconclusive [inhibitor, single point]
38 | CC1=C(C(=O)Nc2ccccc2C)C(c2ccc[nH]2)n2ncnc2N1 (configuration not stated) | inconclusive [inhibitor, single point]
39 | Cc1ccc(-n2ncc3c(=O)n(Cc4cccc(C(F)(F)F)c4)cnc32)cc1C | inactive
40 | O=C(c1ccc(Cl)c(S(=O)(=O)N2CCCC2)c1)N1CCN(c2ccc(F)cc2)CC1 | inconclusive [inhibitor, single point]
41 | Cc1ccc(-c2noc(CNS(=O)(=O)c3ccccc3)n2)cc1 | inconclusive [inhibitor, single point]
42 | O=c1[nH]cc(CCc2ccccc2)c2ncncc12 | inconclusive [inhibitor, single point]
